Reference: patent US20200369766A1 (LEIDOS, published 2020)
The source holds more than one record for some entries. They are shown here; other results are not. The source may hold further records. The values listed for one entry seem to repeat one measurement; a mean can stand among them.

Experiments:
Tag1-LAG3 [1] = test: HTRF LAG3/MHC-II; Ab log M -11.1175
Tag1-LAG3 [2] = test: HTRF LAG3/MHC-II; Ab log M -8.10721
Tag1-LAG3 [3] = test: HTRF LAG3/MHC-II; Ab log M -11.7196
Tag1-LAG3 [4] = test: HTRF LAG3/MHC-II; Ab log M -6.30103
Tag1-LAG3 [5] = test: HTRF LAG3/MHC-II; Ab log M -9.91339
Tag1-LAG3 [6] = test: HTRF LAG3/MHC-II; Ab log M -9.31133

With “anti-human LAG3 antibody (Novoprotein #GMP-A092, Lot 0331158)” as the substance, how does the HTRF ratio (Tag1-LAG3 [1]) read?
Its HTRF ratio is 9030, 9150, 8990, 9100, 9300, 8450 [columns of one line].

And the HTRF ratio (Tag1-LAG3 [2])?
Its HTRF ratio is 3200, 3240, 3170, 3400, 3260, 3120 [columns of one line].

And the HTRF ratio (Tag1-LAG3 [3])?
The HTRF ratio was 9010, 8680, 8550, 9000, 9330, 8890 [columns of one line].

What about the HTRF ratio (Tag1-LAG3 [4]) of the same substance?
Its HTRF ratio is 2260, 2360, 2380, 2230, 2090, 2350 [columns of one line].

And the HTRF ratio (Tag1-LAG3 [5])?
The HTRF ratio was 8480, 8640, 8450, 8990, 8530, 8600 [columns of one line].

And the HTRF ratio (Tag1-LAG3 [6])?
Its HTRF ratio is 7220, 7410, 7300, 7240, 7260, 7470 [columns of one line].
